Source: paper PMC4336329 (PLoS ONE, 2015)
Screen size: about 310,000 compounds; about 14,000 (4.5%) showed an effect of 50% or more. Effects have a minus sign here. The list shows a part of the results.

target: human ether-à-go-go-related gene (hERG) potassium channel (human, UniProt Q12809); test: primary screen, population patch clamp on CHO cells stably expressing hERG
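Also: peak tail current of the secondary pulse compared with the same well before compound.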

Sequence of human ether-à-go-go-related gene (hERG) potassium channel (Q12809 whole entry, looked up): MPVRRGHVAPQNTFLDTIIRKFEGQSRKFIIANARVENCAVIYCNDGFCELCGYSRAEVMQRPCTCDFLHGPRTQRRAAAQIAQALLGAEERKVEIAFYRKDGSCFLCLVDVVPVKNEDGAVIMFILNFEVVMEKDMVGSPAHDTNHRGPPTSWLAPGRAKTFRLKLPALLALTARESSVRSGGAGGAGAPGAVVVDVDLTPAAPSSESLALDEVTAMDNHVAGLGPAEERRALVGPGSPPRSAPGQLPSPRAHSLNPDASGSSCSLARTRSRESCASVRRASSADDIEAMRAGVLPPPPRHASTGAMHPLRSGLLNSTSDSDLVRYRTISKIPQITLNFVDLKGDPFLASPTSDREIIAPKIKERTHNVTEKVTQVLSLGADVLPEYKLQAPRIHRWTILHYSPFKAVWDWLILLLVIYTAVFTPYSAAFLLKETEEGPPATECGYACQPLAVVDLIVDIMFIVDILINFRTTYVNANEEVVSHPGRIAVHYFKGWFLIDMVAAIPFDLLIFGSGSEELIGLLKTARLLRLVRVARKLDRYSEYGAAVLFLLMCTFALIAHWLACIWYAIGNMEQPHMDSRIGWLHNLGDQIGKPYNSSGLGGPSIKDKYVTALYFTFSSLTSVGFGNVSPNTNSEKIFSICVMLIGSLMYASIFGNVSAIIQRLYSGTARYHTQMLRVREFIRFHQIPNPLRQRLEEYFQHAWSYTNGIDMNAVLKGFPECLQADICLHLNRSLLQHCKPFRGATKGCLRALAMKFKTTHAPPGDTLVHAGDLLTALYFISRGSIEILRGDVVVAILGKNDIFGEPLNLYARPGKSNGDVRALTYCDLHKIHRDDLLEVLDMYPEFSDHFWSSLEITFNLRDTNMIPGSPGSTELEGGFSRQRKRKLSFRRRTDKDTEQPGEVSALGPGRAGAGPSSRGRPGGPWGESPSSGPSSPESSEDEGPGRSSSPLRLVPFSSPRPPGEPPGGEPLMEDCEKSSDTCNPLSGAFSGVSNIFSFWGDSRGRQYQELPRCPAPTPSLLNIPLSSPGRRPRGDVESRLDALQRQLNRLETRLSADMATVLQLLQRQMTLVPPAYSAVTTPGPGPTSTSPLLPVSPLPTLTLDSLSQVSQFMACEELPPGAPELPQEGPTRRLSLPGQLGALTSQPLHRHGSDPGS

Compound	hERG current change (%, negative = inhibition) at 10uM [%]
CN(CCCN1CCOCC1)C(=O)c1cc(COc2ccc(F)cc2F)on1	-20.8
COc1ccc(-c2c(C)n([O-])c(C)c(C)[n+]2=O)cc1OC	17.6
Cc1cc(C(=O)N/N=C/c2cc(Cl)cc([N+](=O)[O-])c2O)c2ccccc2n1	11.4
O=C(c1ccc(Cl)cc1)[C@@H]1[C@@H]2C(=O)N(c3cccc4ccccc34)C(=O)[C@@H]2C2c3ccccc3C=NN21 (some centres unmarked)	7.79
CC(C)c1ccc(OCC(=O)NCc2ccccc2)cc1	-2.13
O=S(=O)(c1ccccc1)n1nc(-c2ccccc2)nc1NCc1ccco1	2.1
COc1ccc(C(=O)Nc2cc3c(oc2=O)CCCC3=O)cc1	6.51
O=C(CN1CCN(c2ccc(O)cc2)CC1)Nc1ccccc1C(=O)NCCc1ccccc1	-9.24
O=C(CCl)NCC1CCCO1 (centres unmarked)	9.13
Cc1cc(C)n2nc(C)c(-c3ccc(Cl)cc3)c2n1	27.1
Cc1ccc2oc(C(=O)N(Cc3ccncc3)CC3CCCO3)c(C)c2c1 (centres unmarked)	-34.9
O=C(CCc1ccccc1)NCCSCc1c(F)cccc1Cl	-20.1
Cc1ccccc1C(=O)NCC(=O)c1ccccc1	3.95
CCN(CC)c1ccc(S(=O)(=O)N2CCOCC2)cc1NC(=O)CSC(=S)N1CCCC1	-32.2
CCN(CC)S(=O)(=O)c1cc(NC(=O)c2ccc3c(c2)NC(=O)C(C)S3)ccc1C (centres unmarked)	7.08
O=C(N/N=C/c1cn(-c2ccccc2)nc1-c1cc2ccccc2o1)c1c[nH]c2ccccc12	13.2
Cc1ccccc1CN(C)CC(=O)NC(C)CCc1ccccc1 (centres unmarked)	-17.2
COc1ccc(N2CCN(C(=O)CCN3C(=S)NC(C)(C)CC3C)CC2)cc1 (centres unmarked)	13.9
COc1ccc(CCNc2c(C)c(C)nc3ncnn23)cc1	-14
COc1ccc(CNC(=O)COC(=O)c2cccc(S(=O)(=O)N3CCOCC3)c2)cc1	-24.5
Cc1cc(F)ccc1NCc1ccncc1	-13.2
O=C(Cc1cccs1)N(Cc1ccco1)C1(C(=O)NC2CCCCC2)CCCCC1	-8.09

Compound	hERG current change (%, negative = inhibition) at 10uM [%]
CCOC(=O)N1CCN(S(=O)(=O)c2ccc(C(=O)Nc3nc4c(s3)CC(C)CC4)cc2)CC1 (centres unmarked)	16.2
CCc1ccc(NC(=O)CN(c2ccc(OC)cc2)S(=O)(=O)c2c(C)nn(C)c2C)cc1	-4.36
COc1cc(-c2nc(S(=O)(=O)c3ccc(C)cc3)c(N3CCOCC3)o2)cc(OC)c1OC	-20.1
N#CC1=C2SCN(Cc3ccccc3)CN2C(=O)CC1c1cccs1 (centres unmarked)	6.44
CCn1c(=O)c(C(=O)Nc2ccccc2)c(O)c2ccccc21	20.5
CC1=C(C(N)=O)C(c2ccncc2)n2nc(-c3ccccc3Cl)nc2N1 (centres unmarked)	8.54
Cc1ccc(C(=O)Nc2ccccc2N2CCN(C(=O)C(C)C)CC2)cc1	-19.1
COc1nc(N/N=C/c2ccc(-c3ccccc3[N+](=O)[O-])o2)nc(N2CCOCC2)n1	-15.7
CCCCOC(=O)n1c(=O)oc2ccccc21	-3.79
CCC(COC(=O)NC)NC(=O)Oc1cccc(C)c1 (centres unmarked)	-0.233
COc1cccc(-c2c[nH]c(=O)[nH]c2=O)c1	16.1
CCN(CC)CCCn1c2c(c(SCC(=O)Nc3cc(C)on3)nc1=O)CCC2	-2.43
c1ccc(CCN2CCC3(CC2)OCCO3)cc1	7.75
O=C(CN1C(=O)COc2ccccc21)c1ccc(Cl)cc1	-41.1
CN1C(=O)[C@@H]2[C@H](C1=O)[C@@H]1C(=O)Nc3ccccc3C(=O)N1[C@@H]2c1ccc(Br)cc1	-31.7
CCCCC(C(=O)NC(C)c1ccccc1)C(=O)NC(C)c1ccccc1 (centres unmarked)	-6.81
O=C(c1ccc(S(=O)(=O)c2ccccc2Cl)c([N+](=O)[O-])c1)N1CCCCCC1	-11
O=C(c1cc(-c2ccc(Cl)cc2Cl)on1)N1CCN(C(=O)c2ccco2)CC1	-70.2
O=C(O)COc1ccc(C(=O)Cc2ccc3c(c2)OCCCO3)c(O)c1	0.9
C=CCC(NCc1ccco1)c1ccc(OC)cc1 (centres unmarked)	-0.124
Cc1ccc(NS(=O)(=O)c2ccc(C(=O)NCCCN3CCOCC3)cc2)cc1	-1.13
CCOc1cc(C(C(=O)NCC2CCCO2)N(C(=O)Cn2nnc3ccccc32)c2ccccc2C(C)=O)ccc1O (centres unmarked)	24.5

Compound	hERG current change (%, negative = inhibition) at 10uM [%]
CC(C)CC1NC(=O)N(CC(=O)Nc2ccc(-c3ccccc3)cc2)C1=O (centres unmarked)	-0.474
COc1cccc(CNC(=O)COC(=O)c2cc(Br)c(Br)s2)c1	14.8
CC(=O)NC1C(OCc2ccccc2)OC(COC(C)=O)C(OC(C)=O)C1OC(C)=O (centres unmarked)	21.1
C/C(=N/N1CCN(Cc2cccc3ccccc23)CC1)c1cccnc1	-50.1
COc1ccc2nc(NC(=O)CCN3C(=O)c4ccccc4C3=O)sc2c1	-10.7
O=c1ccc(-c2n[nH]c(=S)n2-c2ccc(F)c(Cl)c2)n[nH]1	25
O=C(CSc1ccccn1)N1CCN(c2ncc(C(F)(F)F)cc2Cl)CC1	-63.9
C=CCN(c1ccc(C(=O)Nc2ccc(C)cc2)cc1)S(C)(=O)=O	-4.31
Cc1ccc(OCC(=O)NC(=S)Nc2cccc(NC(=O)c3ccccc3Cl)c2)cc1	-0.653
Cc1ccc(NC(=O)CN(C)C(=O)/C=C/c2ccc3c(c2)OCO3)cc1	-18.1
CCN(CC(=O)NC(=O)NCc1ccccc1)Cc1nc2ccccc2c(=O)[nH]1	-12.9
N/C(=N\OC(=O)Cc1ccccc1)c1ccncc1	5.47
CCOC(=O)NC1(C(F)(F)F)C(=O)NC(C)=C1C(=O)OC (centres unmarked)	-0.763
CC(CCc1ccccc1)NC(=O)CCCCCNc1nc(=S)[nH]c2ccccc12 (centres unmarked)	6.95
Cc1nc(SCC#N)c2c3c(sc2n1)CCC3	-2.54
Cc1cc(OCC(=O)NC(Cc2ccc(Cl)cc2)C(=O)O)c2c(C)cc(=O)oc2c1 (centres unmarked)	4.88
CC(=O)Oc1cccc(/C=C2\Sc3ccccc3C2=O)c1	7.73
CC(=O)Nc1ccc(N2CCN(c3ccc(C(F)(F)F)cn3)CC2)nc1	-3.49
O=C(COC(=O)Cc1c[nH]c2ccccc12)Nc1cccc2ccccc12	5.37
Cc1noc(C)c1S(=O)(=O)N1CCC2(CC1)OCCO2	11.9
Cc1nnc(SCCn2c(N3CCN(C)CC3)nc3c2c(=O)[nH]c(=O)n3C)s1	7.16
CCOC(=O)c1n[nH]n2c1nc(=O)c1ccccc12	14.2

Compound	hERG current change (%, negative = inhibition) at 10uM [%]
Cc1ccc(C(=O)NCCN2C3=NC[C@H](C(C)C)N3C[C@H]2Cc2ccc(O)cc2)cc1Br	-26.3
COc1ccc(N2C(=O)C(CC(N)=O)N(NC(=O)c3cccc(OC)c3)C2=S)cc1 (centres unmarked)	33.2
CCOC(=O)N1CCN(S(=O)(=O)c2ccc(-n3cnnn3)cc2)CC1	-61.4
CCCS(=O)(=O)c1c(S(=O)(=O)CCC)c2c(N)cccn2c1C(=O)c1ccccc1	-0.347
CC(=O)Nc1ccc(NC(=O)COC(=O)CCCc2c[nH]c3ccccc23)cc1	-1.71
CS(=O)c1ccccc1-c1nc(-c2ccc(Cl)cc2)no1 (centres unmarked)	4.09
O=C(CN1C(=O)c2ccccc2S1(=O)=O)NC1CCCC1	6.01
Cc1c(C(=O)O)cccc1-c1ccc(/C=C2/NC(=O)N(c3ccccc3)C2=O)o1	47.6
CC(C)CN(C(=O)CCc1ccccc1)c1c(N)n(CC(C)C)c(=O)[nH]c1=O	1.3
CCOc1ccc(OCCN2C(=O)NC3(CCCc4ccccc43)C2=O)cc1 (centres unmarked)	-19.8
CCN1CCN(C(=O)C2COc3ccccc3O2)CC1 (centres unmarked)	-7.48
CCOC(=O)c1cc(C)n(-c2ccccc2)c1C	7.23
Cc1ccc(S(=O)(=O)Cn2nnnc2C(C)N2CCN(C(=O)c3ccco3)CC2)cc1 (centres unmarked)	-23.2
Cc1ccc(S(=O)(=O)N(CC(=O)N/N=C/c2cccc(Cl)c2)c2cccc3cccnc23)cc1	4.63
CCNC(=O)C(C)Oc1ccc(Cl)cc1Cl (centres unmarked)	9.68
O=C(CCn1cccc1)NCCc1ccc(Cl)cc1	0.814
O=C(O)C(=O)O.O=C(c1ccccc1)c1ccc(OCCCN2CCCCC2)cc1	-66.4
CCC(C)c1ccc(NC(=O)NCc2cccnc2)cc1 (centres unmarked)	-2.72
Cc1cccc(-n2cnc(C(=O)NC3CCCCCC3)c2)n1	-24.1
O=C(O)c1cccc(-n2cccc2/C=C2/NC(=O)N(c3cccc(Cl)c3)C2=O)c1	12.4
